Test results reported in the supplement of paper PMC4604168 (melanoma cell lines).
Some of the results follow. Single values are uncertain, as repeats are few or missing.

What was measured:
Assay in all cases: cell count relative to DMSO control; melanoma cells; higher = more viable cells
Settings in all cases: library dose: standard library concentration; 72 h; first compound 2 µM
G361 = test system: G361
IPC-298 = test system: IPC-298
IST-MEL1 = test system: IST-MEL1
LB2518-MEL = test system: LB2518-MEL
LOXIMVI = test system: LOXIMVI
MEL-HO = test system: MEL-HO
MZ2-MEL = test system: MZ2-MEL
MeWo = test system: MeWo
RPMI7951 = test system: RPMI7951
RVH-421 = test system: RVH-421
SkMel28 = test system: SkMel28
SkMel2 = test system: SkMel2
SkMel30 = test system: SkMel30
SkMel5 = test system: SkMel5
UACC257 = test system: UACC257
UACC62 = test system: UACC62
WM115 = test system: WM115
WM1716 = test system: WM1716
WM1745 = test system: WM1745
WM3526 = test system: WM3526
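Note: cells treated in 1,536-well plates, then fixed and DAPI-stained, with nuclei counted from automated high-throughput microscope images.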

For `CCCCCCCCCCCCCCCCCCOP(=O)([O-])OC1CC[N+](C)(C)CC1` [Perifosine] + O=C(CCCCCCC(=O)Nc1ccccc1)NO [vorinostat] (partner dose 0.4 µM), the cell count (G361) was 75.8%, the cell count (IPC-298) was 99.4% and the cell count (IST-MEL1) was 79.8%. The cell count (LB2518-MEL) was 94.7%, the cell count (LOXIMVI) was 53.8% and the cell count (MEL-HO) was 100%. It also gave a cell count (MZ2-MEL) of 114%, a cell count (MeWo) of 81.1% and a cell count (RPMI7951) of 32.6%. For the same molecule, the cell count (RVH-421) was 76.8%, the cell count (SkMel28) was 35.6% and the cell count (SkMel2) was 68.6%. It also gave a cell count (SkMel30) of 82.4%, a cell count (SkMel5) of 78% and a cell count (UACC257) of 76.5%. The cell count (UACC62) was 66.3%, the cell count (WM115) was 107% and the cell count (WM1716) was 90.2%. It also gave a cell count (WM1745) of 87.8% and a cell count (WM3526) of 76.2%.

`C[C@@H](N)c1ccc(C(=O)Nc2ccnc3[nH]ccc23)cc1` + NC(=O)Nc1cc(-c2cccc(F)c2)sc1C(=O)N[C@H]1CCCNC1 [AZD7762] (partner dose 0.1 µM) was tested, and the cell count (G361) was 107%, the cell count (IPC-298) was 131% and the cell count (IST-MEL1) was 75.6%. It also gave a cell count (LB2518-MEL) of 86.2%, a cell count (LOXIMVI) of 75.3% and a cell count (MEL-HO) of 93.2%. For the same molecule, the cell count (MZ2-MEL) was 72.1%, the cell count (MeWo) was 70% and the cell count (RPMI7951) was 39.4%. For the same molecule, the cell count (RVH-421) was 59.3%, the cell count (SkMel28) was 79.4% and the cell count (SkMel2) was 133%. It also gave a cell count (SkMel30) of 118%, a cell count (SkMel5) of 69.9% and a cell count (UACC257) of 67%. It also gave a cell count (UACC62) of 73.2%, a cell count (WM115) of 71.5% and a cell count (WM1716) of 33.1%. For the same molecule, the cell count (WM1745) was 41.9% and the cell count (WM3526) was 64.7%.

For `Cn1sc(=O)n(Cc2ccccc2)c1=O` + CC(C)(C)c1cnc(CSc2cnc(NC(=O)C3CCNCC3)s2)o1 [SNS-032] (partner dose 0.05 µM), the cell count (G361) was 103%, the cell count (IPC-298) was 108% and the cell count (IST-MEL1) was 91.3%. It also gave a cell count (LB2518-MEL) of 97.2%, a cell count (LOXIMVI) of 43% and a cell count (MEL-HO) of 88.4%. For the same molecule, the cell count (MZ2-MEL) was 92.5%, the cell count (MeWo) was 84.9% and the cell count (RPMI7951) was 20.6%. For the same molecule, the cell count (RVH-421) was 71.7%, the cell count (SkMel28) was 63.9% and the cell count (SkMel2) was 70.9%. For the same molecule, the cell count (SkMel30) was 77.4%, the cell count (SkMel5) was 55.1% and the cell count (UACC257) was 97.8%. The cell count (UACC62) was 64.1%, the cell count (WM115) was 78.4% and the cell count (WM1716) was 90.3%. It also gave a cell count (WM1745) of 93.1% and a cell count (WM3526) of 73.5%.

`Cn1sc(=O)n(Cc2ccccc2)c1=O` + O=C(CCCCCCC(=O)Nc1ccccc1)NO [vorinostat] (partner dose 0.4 µM) showed a cell count (G361) of 81.5%, a cell count (IPC-298) of 79% and a cell count (IST-MEL1) of 88.2%. The cell count (LB2518-MEL) was 93.2%, the cell count (LOXIMVI) was 44.1% and the cell count (MEL-HO) was 79.8%. The cell count (MZ2-MEL) was 96.6%, the cell count (MeWo) was 66.7% and the cell count (RPMI7951) was 59%. The cell count (RVH-421) was 103%, the cell count (SkMel28) was 47.2% and the cell count (SkMel2) was 83.9%. It also gave a cell count (SkMel30) of 89.2%, a cell count (SkMel5) of 66.8% and a cell count (UACC257) of 77.9%. For the same molecule, the cell count (UACC62) was 72.4%, the cell count (WM115) was 97.9% and the cell count (WM1716) was 82.3%. The cell count (WM1745) was 82.8% and the cell count (WM3526) was 69.6%.

With `Cn1sc(=O)n(Cc2ccccc2)c1=O` + C[C@]1(O)C[C@@H](c2nc(-c3ccc4ccc(-c5ccccc5)nc4c3)c3c(N)nccn32)C1 [OSI906] (partner dose 2 µM) the cell count (G361) was 95.1%, the cell count (IPC-298) was 99.2% and the cell count (IST-MEL1) was 23.9%. For the same molecule, the cell count (LB2518-MEL) was 102%, the cell count (LOXIMVI) was 87.2% and the cell count (MEL-HO) was 89.4%. It also gave a cell count (MZ2-MEL) of 92.1%, a cell count (MeWo) of 83.8% and a cell count (RPMI7951) of 70.7%. It also gave a cell count (RVH-421) of 56.3%, a cell count (SkMel28) of 80.6% and a cell count (SkMel2) of 88%. It also gave a cell count (SkMel30) of 95.5%, a cell count (SkMel5) of 116% and a cell count (UACC257) of 103%. For the same molecule, the cell count (UACC62) was 91.5%, the cell count (WM115) was 106% and the cell count (WM1716) was 109%. It also gave a cell count (WM1745) of 71% and a cell count (WM3526) of 129%.
